Among all 310,000 compounds or so, about 14,000 (4.5%) showed an effect of 50% or more. Effects have a minus sign here. The list shows a part of the results.
Each molecule was assayed against human ether-à-go-go-related gene (hERG) potassium channel (human, UniProt Q12809) (assay: primary screen, population patch clamp on CHO cells stably expressing hERG).
Sequence of human ether-à-go-go-related gene (hERG) potassium channel (Q12809 whole entry, looked up): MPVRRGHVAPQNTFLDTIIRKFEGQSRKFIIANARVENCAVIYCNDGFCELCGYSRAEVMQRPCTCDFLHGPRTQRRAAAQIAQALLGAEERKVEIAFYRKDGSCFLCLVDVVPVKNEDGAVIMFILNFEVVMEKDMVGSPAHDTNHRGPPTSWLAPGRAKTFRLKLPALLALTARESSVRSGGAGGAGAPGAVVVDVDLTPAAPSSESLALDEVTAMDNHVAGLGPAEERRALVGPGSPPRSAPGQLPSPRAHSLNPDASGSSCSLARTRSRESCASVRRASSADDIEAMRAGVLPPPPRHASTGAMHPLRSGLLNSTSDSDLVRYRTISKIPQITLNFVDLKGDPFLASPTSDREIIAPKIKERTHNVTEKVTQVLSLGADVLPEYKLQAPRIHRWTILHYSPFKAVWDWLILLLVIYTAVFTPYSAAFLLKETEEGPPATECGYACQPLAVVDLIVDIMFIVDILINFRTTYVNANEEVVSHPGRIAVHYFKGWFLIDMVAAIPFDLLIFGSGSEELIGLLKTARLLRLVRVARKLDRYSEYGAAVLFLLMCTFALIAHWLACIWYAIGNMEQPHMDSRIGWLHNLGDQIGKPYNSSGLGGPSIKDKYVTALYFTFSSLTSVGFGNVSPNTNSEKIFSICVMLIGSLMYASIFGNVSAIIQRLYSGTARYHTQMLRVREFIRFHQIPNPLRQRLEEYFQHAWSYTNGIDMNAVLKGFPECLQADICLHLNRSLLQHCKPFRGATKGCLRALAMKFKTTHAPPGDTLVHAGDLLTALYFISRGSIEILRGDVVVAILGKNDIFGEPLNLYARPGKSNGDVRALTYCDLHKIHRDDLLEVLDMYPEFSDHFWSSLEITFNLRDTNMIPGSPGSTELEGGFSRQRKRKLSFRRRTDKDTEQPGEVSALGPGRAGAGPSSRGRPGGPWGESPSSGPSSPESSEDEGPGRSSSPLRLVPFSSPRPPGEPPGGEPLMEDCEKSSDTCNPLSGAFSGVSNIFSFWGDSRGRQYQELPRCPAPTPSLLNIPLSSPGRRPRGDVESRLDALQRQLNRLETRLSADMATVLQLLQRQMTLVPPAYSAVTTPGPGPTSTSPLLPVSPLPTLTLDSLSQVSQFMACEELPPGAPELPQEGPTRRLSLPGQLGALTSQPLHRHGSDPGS
With N#CCCN(C(=O)COC(=O)C12CC3CC(CC(O)(C3)C1)C2)c1ccc(F)cc1 the “hERG current change (%, negative = inhibition) at 10uM” value was 9.8%. In the case of COc1cc(CNCCN2CCOCC2)ccc1OCc1c(Cl)cccc1Cl.Cl, the “hERG current change (%, negative = inhibition) at 10uM” value was -50.6%. In the case of COc1cc(C=O)ccc1OCc1c(C)noc1C, the “hERG current change (%, negative = inhibition) at 10uM” value was 10.9%. In the case of O=C(Nc1ccc(S(=O)(=O)Nc2cnc3ccccc3n2)cc1)c1ccc(Cl)c([N+](=O)[O-])c1, the “hERG current change (%, negative = inhibition) at 10uM” value was 12.9%. For CC1CCCC(CC(=O)O)(CC(=O)O)C1 (centres unmarked), the “hERG current change (%, negative = inhibition) at 10uM” value was 17.2%. Cc1ccc(NS(=O)(=O)c2c(C)nc3sccn3c2=O)cc1C was tested, and the “hERG current change (%, negative = inhibition) at 10uM” value was -10.9%. COc1cc(C(=O)NCCC(=O)NCc2ccc3c(c2)OCO3)cc(OC)c1OC was tested, and the “hERG current change (%, negative = inhibition) at 10uM” value was 16.4%. In the case of CCOc1ccc(S(=O)(=O)N(CC)CC(=O)NCc2ccccn2)cc1C, the “hERG current change (%, negative = inhibition) at 10uM” value was 2.76%. In the case of Cc1cc([N+](=O)[O-])ccc1NC(=O)CCC(=O)N1CCCCCC1, the “hERG current change (%, negative = inhibition) at 10uM” value was -23.6%. COc1ccc(OC)c(NS(=O)(=O)c2ccc(N3CCCC3=O)cc2)c1 was tested, and the “hERG current change (%, negative = inhibition) at 10uM” value was -4.92%. CCc1ccc(O)c(N=Cc2ccccc2O)c1 was tested, and the “hERG current change (%, negative = inhibition) at 10uM” value was 2%. For COc1ccc(-n2nc(C(=O)NCC(=O)N3CCCC3)c3ccccc3c2=O)cc1Cl, the “hERG current change (%, negative = inhibition) at 10uM” value was 17.7%. For CCN(CC)S(=O)(=O)c1ccc(OC)c(NC(=O)/C=C/c2ccco2)c1, the “hERG current change (%, negative = inhibition) at 10uM” value was -37.5%. For O=C(Nc1cccc(C(F)(F)F)c1)C12CC3CC(CC(C3)C1)C2, the “hERG current change (%, negative = inhibition) at 10uM” value was 16.3%. With CCc1ccc(NCc2nc3ccccc3c(=O)[nH]2)cc1 the “hERG current change (%, negative = inhibition) at 10uM” value was -3.29%. With CCc1c(C)sc(NC(=S)N2CC(C)OC(C)C2)c1C(=O)OC (centres unmarked) the “hERG current change (%, negative = inhibition) at 10uM” value was 27.3%. With CCCN(CCC)Cc1c(C(=O)N/N=C/CCc2ccccc2)nnn1-c1nonc1N the “hERG current change (%, negative = inhibition) at 10uM” value was -19.1%. For O=C(CSc1c[nH]c2ccccc12)N1CCCc2ccccc21, the “hERG current change (%, negative = inhibition) at 10uM” value was 0.956%. In the case of O=C(Cn1nc(-c2ccccc2)c2ccccc2c1=O)Nc1ccccn1, the “hERG current change (%, negative = inhibition) at 10uM” value was 0.199%. CCC(=O)Nc1cccc(NC(=O)c2ccc(C)c([N+](=O)[O-])c2)c1 was tested, and the “hERG current change (%, negative = inhibition) at 10uM” value was -20.9%. COCCCNc1c2c3c(cccc3[nH]c1=O)C(=O)c1ccccc1-2 was tested, and the “hERG current change (%, negative = inhibition) at 10uM” value was -24%. In the case of Cc1c(Br)c([N+](=O)[O-])nn1CC(=O)Nc1ccc(CC#N)cc1, the “hERG current change (%, negative = inhibition) at 10uM” value was 33.8%. With CSc1ccc(CCNC(=O)C2CCN(c3nnc(-n4cccc4)s3)CC2)cc1 the “hERG current change (%, negative = inhibition) at 10uM” value was 1.23%. For Cc1ccccc1OCC(=O)NCC(=O)OCC(=O)c1ccc2ccccc2c1, the “hERG current change (%, negative = inhibition) at 10uM” value was 2.34%. For CC(C)CN(C(=O)COC(=O)c1cncc(Br)c1)c1c(N)n(Cc2ccccc2)c(=O)[nH]c1=O, the “hERG current change (%, negative = inhibition) at 10uM” value was 21.9%. CCOc1ccc(S(=O)(=O)N2CCC(C(=O)NCc3cccnc3)CC2)cc1Cl was tested, and the “hERG current change (%, negative = inhibition) at 10uM” value was -40.8%. For NNc1ccc2nncn2n1, the “hERG current change (%, negative = inhibition) at 10uM” value was -0.364%. With CC(C)c1ccc(N(C)C(=O)Cc2c(C(=O)O)n(C)c3ccccc23)cc1 the “hERG current change (%, negative = inhibition) at 10uM” value was 0.167%. For CC(NC(=O)CCC(=O)NCc1ccc(F)cc1)c1ccccc1 (centres unmarked), the “hERG current change (%, negative = inhibition) at 10uM” value was 13.3%. In the case of CCOCCCn1c(=S)[nH]c2cc(C(=O)N3CCOCC3)ccc2c1=O, the “hERG current change (%, negative = inhibition) at 10uM” value was -9.07%. With CCN(CC)C(=O)CSc1nnc(-c2ccco2)n1Cc1ccco1 the “hERG current change (%, negative = inhibition) at 10uM” value was -22.3%. With O=C(c1ccc(F)cc1)c1ccc(N2CCCCC2)cc1 the “hERG current change (%, negative = inhibition) at 10uM” value was -31.5%. In the case of CCCn1nnc(NC(=O)c2ccc(Cl)cc2Cl)n1, the “hERG current change (%, negative = inhibition) at 10uM” value was 2.23%. For COC(=O)C1=C(C(=O)OC)C2C(C)=CC(C)=CN2C(C(=O)OC)=C1C(=O)OC (centres unmarked), the “hERG current change (%, negative = inhibition) at 10uM” value was -6.2%. With O=C(c1cccc(Cl)c1)C1CCCN(C(=O)c2ccc3c(c2)OCO3)C1 (centres unmarked) the “hERG current change (%, negative = inhibition) at 10uM” value was -34.1%. For CC1CCCC(NS(=O)(=O)c2cccc3nsnc23)C1C (centres unmarked), the “hERG current change (%, negative = inhibition) at 10uM” value was 9.42%. With COc1cc(CNC(=O)CCCC/C=C\C(C)C)ccc1O the “hERG current change (%, negative = inhibition) at 10uM” value was 0.646%. For Cc1cc(Cl)ccc1OCC(=O)NNC(=O)c1ccco1, the “hERG current change (%, negative = inhibition) at 10uM” value was 8.38%. For Nc1ncnc2c1ncn2[C@@H]1O[C@H](CO)C[C@@H]1O.O, the “hERG current change (%, negative = inhibition) at 10uM” value was -3.06%. For Cc1ccc(-c2nnc(Nc3ccc(C(=O)N(C)C)cc3)c3ccccc23)cc1S(N)(=O)=O, the “hERG current change (%, negative = inhibition) at 10uM” value was 11.6%. For CNC(=O)c1cccn(Cc2ccc(C(F)(F)F)cc2)c1=O, the “hERG current change (%, negative = inhibition) at 10uM” value was 35.5%. With O=C(NCc1cccs1)C1CCCN1C(=O)Nc1ccccc1 (centres unmarked) the “hERG current change (%, negative = inhibition) at 10uM” value was 21%. With CCOC(=O)c1oc2c(O)c(O)ccc2c(=O)c1-c1nncn1-c1ccccc1 the “hERG current change (%, negative = inhibition) at 10uM” value was 13.3%. With CN(CC1CCOCC1)C(=O)CC1C(=O)NCCN1C/C=C/c1ccccc1 (centres unmarked) the “hERG current change (%, negative = inhibition) at 10uM” value was 9.57%. For O=C(NCC1(N2CCOCC2)CCCCC1)c1cccc(S(=O)(=O)Nc2ccc(F)cc2)c1, the “hERG current change (%, negative = inhibition) at 10uM” value was -44.1%. For CC(C)OC(=O)CC(=O)CSc1nc2c(cc1C#N)CCCCC2, the “hERG current change (%, negative = inhibition) at 10uM” value was 5.58%. Cc1cc(C)cc(NC(=O)CCc2nc3sc4c(c3c(=O)[nH]2)CCCC4)c1 was tested, and the “hERG current change (%, negative = inhibition) at 10uM” value was -12.4%. NC1=NC(=O)/C(=C/C=C/c2cccs2)S1 was tested, and the “hERG current change (%, negative = inhibition) at 10uM” value was 6.07%. CC(=O)Nc1cccc(C(=O)N/N=C/c2ccc(C)o2)c1 was tested, and the “hERG current change (%, negative = inhibition) at 10uM” value was 18.1%. With CC(C)CN1CC(=O)N2C(c3ccccc3)c3[nH]c4ccccc4c3C[C@H]2C1=O (some centres unmarked) the “hERG current change (%, negative = inhibition) at 10uM” value was -21.2%. O=C(C1CCCN(S(=O)(=O)c2ccccc2[N+](=O)[O-])C1)N1CCN(c2ccccc2)CC1 (centres unmarked) was tested, and the “hERG current change (%, negative = inhibition) at 10uM” value was -38.1%. With Cc1ccc2c(c1)nnn2C1CCN(CC(=O)Nc2ccc(F)cc2)CC1 the “hERG current change (%, negative = inhibition) at 10uM” value was -65.4%. With CCCCCCCCCC[n+]1cccc(C(=O)N(CC)CC)c1.[Br-] the “hERG current change (%, negative = inhibition) at 10uM” value was -0.215%. For COC(=O)c1c(-c2cccs2)csc1NC(=O)CSc1ncnc2sc(C)c(C)c12, the “hERG current change (%, negative = inhibition) at 10uM” value was 0.474%. With Cc1cc(/C=C(\C#N)C(=O)NC2CCCCCC2)c(C)n1C the “hERG current change (%, negative = inhibition) at 10uM” value was 2.29%. In the case of Cc1ccc(NC(=O)CCC(=O)OCC(=O)c2ccc(Oc3ccc([N+](=O)[O-])cc3)cc2)cc1C, the “hERG current change (%, negative = inhibition) at 10uM” value was -1.43%.
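Note: peak tail current of the secondary pulse compared with the same well before compound.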
